PubChem BioAssay AID463173 (ICCB-Longwood Screening Facility, Harvard Medical School, 2010)
In all, about 52,000 compounds went through this assay and about 4,300 (8.3%) were called active. No stated cut-off is given here; in the data, active means survival mostly below about 52% (no sharp cut-off); inactive means mostly above about 56%. The list shows a part of the results.

These molecules were tested on DeltatarO mutant (assay: S. aureus survival, RN4220 and DeltatarO strains – OD600, teichoic acid synthesis inhibitors, primary screen (AID 463173)). Conditions: S. aureus RN4220 wild type/DeltatarO growth, OD600, 18 h, hits give low values, screened at 18.75 µg/mL (by protocol).

**Q.** How did the survival turn out when `C=CCc1ccccc1OCC(O)CN1CCN(c2ccccc2)CC1` (configuration not stated) was run?
**A.** inactive: 83%

**Q.** Which survival does the source give for `CCn1c(=O)n(CC)c2cc(N3CCCCC3)c(NC(=O)Nc3ccccc3C(F)(F)F)cc21` here?
**A.** inactive: 101%

**Q.** How did the survival turn out when `Cc1cc(C)n2nc(SCC(=O)Nc3cccc(C(F)(F)F)c3)nc2n1` was run?
**A.** inactive: 57%

**Q.** Which survival does the source give for `COc1ccccc1C(=O)Nc1ccc2c(c1)nc(CN1CCCCC1)n2C` here?
**A.** inactive: 66%

**Q.** With `CCC(Oc1ccc(F)cc1)C(=O)Nc1nc(-c2ccc(F)cc2)ns1` (configuration not stated) as the molecule, how does the survival read?
**A.** active: -2%

**Q.** `COc1ccc(C(CC(=O)NCc2ccccc2)N2Cc3ccccc3C2=O)cc1` (configuration not stated) was tested. Which survival did it give?
**A.** inactive: 106%

**Q.** Which survival does the source give for `CCOC(=O)c1ccc(NC(=O)CC2C(=O)N(c3cccc(OC)c3)C(=O)N2Cc2ccc(OC)cc2)cc1` (configuration not stated) here?
**A.** inactive: 57%

**Q.** How did the survival turn out when `CCc1ccccc1NC(=O)c1cnc2sc(N3CCOCC3)nn2c1=O` was run?
**A.** inactive: 116%

**Q.** With `COc1ccccc1N1CCN(C(=O)CCNS(=O)(=O)c2ccc3c(c2)CCN3C(=O)C2CC2)CC1` as the molecule, how does the survival read?
**A.** inactive: 91%

**Q.** How did the survival turn out when `Cc1ccc(NC(=O)c2cnc(SCC(=O)Nc3cc(C)on3)n(C)c2=O)cc1` was run?
**A.** inactive: 88%

**Q.** For `COc1ccc(Cl)cc1NC(=O)CSC1=Nc2ccccc2C2=NC(CC(=O)NCc3ccc4c(c3)OCO4)C(=O)N12` (configuration not stated), which survival is on record?
**A.** inactive: 87%

**Q.** Which survival does the source give for `Cc1ccc(CNC(=O)Cn2cc(S(=O)(=O)Cc3ccccc3F)c3ccccc32)cc1` here?
**A.** inactive: 112%

**Q.** For `N#Cc1c(N)nc2c(c1-c1ccc3c(c1)OCO3)CCc1ccccc1-2`, which survival is on record?
**A.** inactive: 80%

**Q.** `COc1cc(NC(=O)CSC2=Nc3ccccc3N=C(c3ccc(F)cc3)C2)cc(OC)c1` was tested. Which survival did it give?
**A.** inactive: 94%

**Q.** For `COCCNC(=O)Cn1nc(C(F)(F)F)cc1C`, which survival is on record?
**A.** inactive: 85%

**Q.** `COc1ccc(CNC(=O)c2cnc3cc(C)ccn3c2=O)cc1` was tested. Which survival did it give?
**A.** inactive: 73%

**Q.** Which survival does the source give for `C#CCN1C(=O)C2C(C(=O)NC)C3C=CC2(O3)C1C(=O)NCc1ccc(OC)cc1` (configuration not stated) here?
**A.** inactive: 103%

**Q.** `Cc1cc(N2CCOCC2)cc(C)[n+]1[O-]` was tested. Which survival did it give?
**A.** inactive: 90%

**Q.** Which survival does the source give for `Cc1ccccc1NC(=O)CSc1nc(=O)n(CCN2CCOCC2)c2c1CCC2` here?
**A.** inactive: 93%

**Q.** With `CN(Cc1ccccc1)C(=O)CSc1nc2ccccc2n1Cc1ccccc1F` as the molecule, how does the survival read?
**A.** inactive: 86%

**Q.** With `Cc1sc2c(c1C)c(=O)n(-c1cccc(C(F)(F)F)c1)c(=O)n2Cc1ccc(F)cc1` as the molecule, how does the survival read?
**A.** inactive: 57%

**Q.** `COc1ccccc1Cc1nc2ccccc2nc1SCC(=O)Nc1cccc(Cl)c1C` was tested. Which survival did it give?
**A.** inactive: 79%

**Q.** How did the survival turn out when `COC(=O)c1ccc(NC(=O)CCc2c(C)nc3c(c2C)c(=O)n(C)c(=O)n3C)cc1` was run?
**A.** inactive: 98%

**Q.** With `CCC(CC)NC1CCN(Cc2ccccc2)CC1` as the molecule, how does the survival read?
**A.** inactive: 104%

**Q.** Which survival does the source give for `Cc1nn2c(C(F)(F)F)cc(-c3ccc(OC(C)C)cc3)nc2c1C#N` here?
**A.** inactive: 70%

**Q.** With `CCOc1ccccc1CNC(=O)c1[nH]c2ccccc2c1Sc1ccccc1` as the molecule, how does the survival read?
**A.** inactive: 72%

**Q.** `O=C(c1ccco1)N1CCN(c2nc3ccc(Cl)cc3s2)CC1` was tested. Which survival did it give?
**A.** inactive: 95%

**Q.** How did the survival turn out when `CCn1ccc2cc(S(=O)(=O)N3CCC(C(=O)NCCOC)CC3)ccc21` was run?
**A.** inactive: 60%

**Q.** With `CCN1CCN(CCCNC(=O)c2cc3c(s2)-c2c(C)cccc2OC3)CC1` as the molecule, how does the survival read?
**A.** inactive: 102%

**Q.** `O=S(=O)(c1ccc(-c2cc(C(F)(F)F)on2)s1)N1CCN(c2cccc(Cl)c2)CC1` was tested. Which survival did it give?
**A.** inactive: 117%

**Q.** With `NC(=S)N(c1ccccc1)c1ccccc1` as the molecule, how does the survival read?
**A.** inactive: 98%

**Q.** `Cc1ccc(C)c(N2CCN(C(=O)c3cccn3-c3nnc(N4CCCCC4)s3)CC2)c1` was tested. Which survival did it give?
**A.** inactive: 57%

**Q.** `COc1ccccc1CCNC(=O)CCc1c(C)c2cc3c(C)coc3cc2oc1=O` was tested. Which survival did it give?
**A.** inactive: 63%

**Q.** `COc1cccc(CNC(=O)c2cc3c(=O)n(C)c4ccccc4c3n2C)c1` was tested. Which survival did it give?
**A.** inactive: 83%

**Q.** With `CC1(C)CC2CC(C)(CN2C(=O)CCCN2C(=O)c3ccccc3C2=O)C1` (configuration not stated) as the molecule, how does the survival read?
**A.** inactive: 70%

**Q.** With `COCCn1c(C)cc(O)c(C(c2ccccc2OC)N2CCCCC2)c1=O` (configuration not stated) as the molecule, how does the survival read?
**A.** inactive: 81%

**Q.** For `CC(C)(C)NC(=O)C1CC(=O)OC12CCCCC2` (configuration not stated), which survival is on record?
**A.** inactive: 85%

**Q.** With `Cc1ccc(NC(=O)Cn2c(=O)c(C(F)(F)F)nc3ccccc32)c(C)c1` as the molecule, how does the survival read?
**A.** inactive: 81%

**Q.** `Cc1ccc(N2CCN(C(=O)C3CCC(CNS(=O)(=O)c4ccc(Br)s4)CC3)CC2C)cc1` (configuration not stated) was tested. Which survival did it give?
**A.** inactive: 71%

**Q.** For `COc1ccc2cc(CNc3ccccc3)c(=O)n(CC(=O)Nc3ccc(C)cc3C)c2c1`, which survival is on record?
**A.** active: 0%

**Q.** For `Cc1ccc2nc(SCc3nc(-c4ccccc4C)no3)[nH]c2c1`, which survival is on record?
**A.** active: 25%

**Q.** With `O=C(NN1C(=O)C2C3c4ccccc4C(c4ccccc43)C2C1=O)c1cccnc1` (configuration not stated) as the molecule, how does the survival read?
**A.** inactive: 71%

**Q.** Which survival does the source give for `Cc1ccc2c(CC(=O)Nc3c(C(=O)Nc4cccc(Cl)c4)oc4ccccc34)coc2c1C` here?
**A.** inactive: 62%

**Q.** How did the survival turn out when `COc1cc(C)nc(N2CCCC(C(=O)Nc3ccccc3Br)C2)n1` (configuration not stated) was run?
**A.** inactive: 91%

**Q.** `CCc1cnc2c(c1SCC(=O)NCc1ccccc1)c(=O)n(C)c(=O)n2C` was tested. Which survival did it give?
**A.** inactive: 97%

**Q.** Which survival does the source give for `CC(C)(C)c1ccc(C(=O)N2CC(=O)Nc3ccc(F)cc3C2c2ccc(F)cc2)cc1` (configuration not stated) here?
**A.** inactive: 65%

**Q.** With `Cc1cc(C)c2oc(-c3cccc(NC(=O)c4cc5ccccc5o4)c3)nc2c1` as the molecule, how does the survival read?
**A.** active: 36%

**Q.** For `COc1cc(CCC(=O)NCc2ccc3c(c2)CCN3C(=O)c2cccc(C)c2)cc(OC)c1OC`, which survival is on record?
**A.** inactive: 118%

**Q.** Which survival does the source give for `COc1cc(C2c3c(oc4ccccc4c3=O)C(=O)N2Cc2ccccc2Cl)ccc1O` (configuration not stated) here?
**A.** inactive: 79%

**Q.** Which survival does the source give for `Cc1ccc(Nc2cc(C(=O)NC3CCCC3)c3ccccc3n2)c(C)c1` here?
**A.** inactive: 77%

**Q.** Which survival does the source give for `CN(Cc1ccccc1)C(=O)Cn1ncc2c3ccccc3n(Cc3cccc(Cl)c3)c2c1=O` here?
**A.** inactive: 90%

**Q.** How did the survival turn out when `CCc1cccc(OCC(=O)Nc2c[nH]c(=O)[nH]c2=O)c1` was run?
**A.** inactive: 100%

**Q.** How did the survival turn out when `COc1ccc(NC(=O)CSC2=Nc3ccccc3C3=NC(Cc4ccccc4)C(=O)N23)cc1Cl` (configuration not stated) was run?
**A.** inactive: 78%

**Q.** `Cc1ccc(Cl)cc1Nc1sc(C(=O)c2ccccc2)c(N)c1S(=O)(=O)c1ccccc1` was tested. Which survival did it give?
**A.** inactive: 75%

**Q.** Which survival does the source give for `O=S(=O)(Nc1cccnc1)c1ccc(C2CCCCC2)cc1` here?
**A.** inactive: 79%

**Q.** `Cc1ccc(CCNC(=O)c2c(C)oc3ncnc(N4CCOCC4)c23)cc1` was tested. Which survival did it give?
**A.** inactive: 126%

**Q.** For `Fc1cccc(NCc2cccn2-c2nnc(N3CCOCC3)s2)c1`, which survival is on record?
**A.** inactive: 80%
